The text below walks through data of the supplement of paper PMC4967469.

A lower IC50 marks a more sensitive line; fits outside the tested doses are given as limits. For AUC the same curve is integrated over the 256-fold range of doses and scaled to a fraction; it is 1 without any effect and falls as sensitivity rises. A top dose marked as inferred comes from the curve model; the source does not state it.

Compound in this assay: CCn1cc(-c2ccnc3[nH]c(-c4cccc(CN(C)C)c4)cc23)c(-c2ccc(NC(=O)N(C)C)cc2)n1 [GSK1070916]
As to the kind of experiment: Viability of human cancer cell lines after 72 h of drug (GDSC screen). As to conditions: top dose inferred. Here is the method: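 Human cancer cell lines in 384-well plates, medium with 10% serum, drug for 72 h over a 256-fold dose range (nine 2-fold or five 4-fold steps up to the top dose). Adherent lines were fixed and stained with the nucleic acid dye Syto60, suspension lines read with resazurin; signal relative to control wells, capped at 0 and 100%. One two-parameter sigmoid per drug and line, fitted in a mixed model over all curves with the slope shared within a line.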
One may read the IC50 as the midpoint of a concentration-inhibition curve. Regarding “KMS-12-BM (myeloma, suspension, top dose 2.56 µM)”, the AUC turned out to be 0.794 and the IC50 turned out to be 0.954 µM.
For the cell line “KNS-42 (glioma, adherent, top dose 2.56 µM)”, the AUC turned out to be 0.977 and the IC50 was greater than 2.56 µM.
As to “KNS-81-FD (glioma, adherent, top dose 2.56 µM)”, the AUC came to 0.974 and the IC50 was greater than 2.56 µM.
Regarding “KON (head and neck, adherent, top dose 2.56 µM)”, the AUC was determined as 0.986 and the IC50 was greater than 2.56 µM.
For the cell line “KOPN-8 (B-cell leukaemia, suspension, top dose 2.56 µM)”, the AUC was 0.125 and the IC50 turned out to be 0.0133 µM.
With “KP-1N (pancreas, adherent, top dose 10.24 µM)”, the AUC turned out to be 0.564 and the IC50 was 0.967 µM.
Regarding “KP-2 (pancreas, adherent, top dose 2.56 µM)”, the AUC came out at 0.942 and the IC50 was greater than 2.56 µM.
The corresponding values for “KP-3 (pancreas, adherent, top dose 2.56 µM)” are 0.952 and greater than 2.56 µM.
Taken in the same sequence, the figures for “KP-N-YN (neuroblastoma, adherent, top dose 2.56 µM)” were 0.956 and greater than 2.56 µM.
As for “KP-N-YS (neuroblastoma, adherent, top dose 2.56 µM)”, the AUC came out at 0.306 and the IC50 came out at 0.0419 µM.
Taken in the same sequence, the figures for “KS-1 (glioma, adherent, top dose 2.56 µM)” were 0.914 and greater than 2.56 µM.
Turning to “KU812 (chronic myeloid leukaemia, suspension, top dose 2.56 µM)”, the AUC turned out to be 0.91 and the IC50 is greater than 2.56 µM.
Take “KU-19-19 (bladder, adherent, top dose 2.56 µM)”: the AUC worked out at 0.966 and the IC50 was greater than 2.56 µM.
For “KURAMOCHI (ovary, adherent, top dose 2.56 µM)”, the AUC worked out at 0.927 and the IC50 was greater than 2.56 µM.
Turning to “KY821 (leukaemia, suspension, top dose 2.56 µM)”, the AUC is 0.942 and the IC50 is greater than 2.56 µM.
Regarding “KYAE-1 (oesophagus, suspension, top dose 2.56 µM)”, the AUC was 0.915 and the IC50 was greater than 2.56 µM.
Take “KYM-1 (rhabdomyosarcoma, adherent, top dose 2.56 µM)”: the AUC is 0.986 and the IC50 was greater than 2.56 µM.
For the cell line “KYSE-50 (oesophagus, adherent, top dose 2.56 µM)”, the AUC was 0.854 and the IC50 was 1.75 µM.
As for “KYSE-70 (oesophagus, adherent, top dose 2.56 µM)”, the AUC was 0.965 and the IC50 was greater than 2.56 µM.
With “KYSE-140 (oesophagus, adherent, top dose 2.56 µM)”, the AUC is 0.891 and the IC50 is greater than 2.56 µM.
As for “KYSE-150 (oesophagus, adherent, top dose 2.56 µM)”, the AUC was 0.972 and the IC50 is greater than 2.56 µM.
Take “KYSE-180 (oesophagus, adherent, top dose 2.56 µM)”: the AUC amounted to 0.974 and the IC50 is greater than 2.56 µM.
As to “KYSE-220 (oesophagus, adherent, top dose 2.56 µM)”, the AUC amounted to 0.918 and the IC50 is greater than 2.56 µM.
On to “KYSE-270 (oesophagus, adherent, top dose 2.56 µM)”, for which the AUC amounted to 0.967 and the IC50 was greater than 2.56 µM.
With “KYSE-410 (oesophagus, adherent, top dose 2.56 µM)”, the AUC turned out to be 0.955 and the IC50 is greater than 2.56 µM.
Taken in the same sequence, the figures for “KYSE-450 (oesophagus, adherent, top dose 2.56 µM)” were 0.827 and 1.45 µM.
As to “KYSE-510 (oesophagus, adherent, top dose 2.56 µM)”, the AUC amounted to 0.982 and the IC50 is greater than 2.56 µM.
